According to paper PMC11410653:
Where two headings read alike, the source gives them in different places. Results are given in words; binding and its absence hold for the method and conditions named. In cells and extracts the contact can be indirect. Some binding calls cover weakened binding; strength is not graded here. Sequences can lack the tags named with a protein. Each block holds one molecule with its values, some of them ahead of it.

By UniProt entry, the sequences of proteins in these tests, tags left out. Where a name states a change or a piece, a line headed by the entry shows the natural chain unless it says otherwise. Residues count along the entry.
UniProt P54609, residues 191-809: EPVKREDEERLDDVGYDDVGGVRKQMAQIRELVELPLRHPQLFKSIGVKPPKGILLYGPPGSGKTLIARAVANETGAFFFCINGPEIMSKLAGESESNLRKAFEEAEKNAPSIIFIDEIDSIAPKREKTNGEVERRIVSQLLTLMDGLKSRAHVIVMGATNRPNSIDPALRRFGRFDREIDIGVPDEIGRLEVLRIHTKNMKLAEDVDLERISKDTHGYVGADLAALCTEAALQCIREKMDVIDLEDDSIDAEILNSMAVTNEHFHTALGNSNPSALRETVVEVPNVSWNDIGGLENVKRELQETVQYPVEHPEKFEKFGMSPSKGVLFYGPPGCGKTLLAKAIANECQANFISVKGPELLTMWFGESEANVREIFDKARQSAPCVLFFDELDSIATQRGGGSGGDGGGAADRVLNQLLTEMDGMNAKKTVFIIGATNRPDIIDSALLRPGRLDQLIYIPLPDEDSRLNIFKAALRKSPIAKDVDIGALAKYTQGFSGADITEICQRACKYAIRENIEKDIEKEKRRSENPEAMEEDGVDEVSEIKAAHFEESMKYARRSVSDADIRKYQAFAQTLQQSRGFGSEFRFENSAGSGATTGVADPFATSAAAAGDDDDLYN
UniProt Q9SLF3: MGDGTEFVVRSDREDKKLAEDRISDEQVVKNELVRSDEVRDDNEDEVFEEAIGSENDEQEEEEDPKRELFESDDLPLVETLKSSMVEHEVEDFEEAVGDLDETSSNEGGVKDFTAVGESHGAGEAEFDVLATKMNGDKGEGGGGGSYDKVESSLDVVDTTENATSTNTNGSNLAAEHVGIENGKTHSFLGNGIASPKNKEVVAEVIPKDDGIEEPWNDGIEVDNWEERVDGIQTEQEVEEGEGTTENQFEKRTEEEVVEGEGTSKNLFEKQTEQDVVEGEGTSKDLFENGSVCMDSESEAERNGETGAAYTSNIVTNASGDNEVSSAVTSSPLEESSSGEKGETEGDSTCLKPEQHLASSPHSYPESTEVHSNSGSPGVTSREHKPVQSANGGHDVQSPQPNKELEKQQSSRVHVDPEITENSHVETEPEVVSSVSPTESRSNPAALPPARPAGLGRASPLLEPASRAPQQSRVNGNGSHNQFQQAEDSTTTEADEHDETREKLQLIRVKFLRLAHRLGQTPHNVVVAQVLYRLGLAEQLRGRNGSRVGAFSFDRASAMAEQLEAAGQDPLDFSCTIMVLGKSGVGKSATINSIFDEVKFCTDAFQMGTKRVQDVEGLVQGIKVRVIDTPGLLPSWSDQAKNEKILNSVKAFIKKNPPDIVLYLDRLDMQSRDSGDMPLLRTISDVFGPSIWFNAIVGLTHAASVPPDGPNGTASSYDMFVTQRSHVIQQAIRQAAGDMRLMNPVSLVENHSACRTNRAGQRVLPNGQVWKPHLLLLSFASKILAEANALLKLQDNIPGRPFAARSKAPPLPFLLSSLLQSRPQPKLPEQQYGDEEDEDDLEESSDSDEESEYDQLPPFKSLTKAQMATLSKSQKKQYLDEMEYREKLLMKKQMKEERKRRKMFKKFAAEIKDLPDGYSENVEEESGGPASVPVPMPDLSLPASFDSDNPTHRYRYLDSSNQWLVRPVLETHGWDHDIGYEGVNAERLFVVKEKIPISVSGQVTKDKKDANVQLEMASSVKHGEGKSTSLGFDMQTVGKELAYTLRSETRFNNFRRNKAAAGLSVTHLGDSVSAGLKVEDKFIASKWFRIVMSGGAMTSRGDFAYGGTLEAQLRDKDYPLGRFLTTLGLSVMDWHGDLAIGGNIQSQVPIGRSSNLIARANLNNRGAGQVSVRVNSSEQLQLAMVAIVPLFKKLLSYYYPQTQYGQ
UniProt Q8H159, residues 1-76: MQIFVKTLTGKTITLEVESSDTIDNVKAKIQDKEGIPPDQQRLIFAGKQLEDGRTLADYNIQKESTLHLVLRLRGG
UniProt O81283: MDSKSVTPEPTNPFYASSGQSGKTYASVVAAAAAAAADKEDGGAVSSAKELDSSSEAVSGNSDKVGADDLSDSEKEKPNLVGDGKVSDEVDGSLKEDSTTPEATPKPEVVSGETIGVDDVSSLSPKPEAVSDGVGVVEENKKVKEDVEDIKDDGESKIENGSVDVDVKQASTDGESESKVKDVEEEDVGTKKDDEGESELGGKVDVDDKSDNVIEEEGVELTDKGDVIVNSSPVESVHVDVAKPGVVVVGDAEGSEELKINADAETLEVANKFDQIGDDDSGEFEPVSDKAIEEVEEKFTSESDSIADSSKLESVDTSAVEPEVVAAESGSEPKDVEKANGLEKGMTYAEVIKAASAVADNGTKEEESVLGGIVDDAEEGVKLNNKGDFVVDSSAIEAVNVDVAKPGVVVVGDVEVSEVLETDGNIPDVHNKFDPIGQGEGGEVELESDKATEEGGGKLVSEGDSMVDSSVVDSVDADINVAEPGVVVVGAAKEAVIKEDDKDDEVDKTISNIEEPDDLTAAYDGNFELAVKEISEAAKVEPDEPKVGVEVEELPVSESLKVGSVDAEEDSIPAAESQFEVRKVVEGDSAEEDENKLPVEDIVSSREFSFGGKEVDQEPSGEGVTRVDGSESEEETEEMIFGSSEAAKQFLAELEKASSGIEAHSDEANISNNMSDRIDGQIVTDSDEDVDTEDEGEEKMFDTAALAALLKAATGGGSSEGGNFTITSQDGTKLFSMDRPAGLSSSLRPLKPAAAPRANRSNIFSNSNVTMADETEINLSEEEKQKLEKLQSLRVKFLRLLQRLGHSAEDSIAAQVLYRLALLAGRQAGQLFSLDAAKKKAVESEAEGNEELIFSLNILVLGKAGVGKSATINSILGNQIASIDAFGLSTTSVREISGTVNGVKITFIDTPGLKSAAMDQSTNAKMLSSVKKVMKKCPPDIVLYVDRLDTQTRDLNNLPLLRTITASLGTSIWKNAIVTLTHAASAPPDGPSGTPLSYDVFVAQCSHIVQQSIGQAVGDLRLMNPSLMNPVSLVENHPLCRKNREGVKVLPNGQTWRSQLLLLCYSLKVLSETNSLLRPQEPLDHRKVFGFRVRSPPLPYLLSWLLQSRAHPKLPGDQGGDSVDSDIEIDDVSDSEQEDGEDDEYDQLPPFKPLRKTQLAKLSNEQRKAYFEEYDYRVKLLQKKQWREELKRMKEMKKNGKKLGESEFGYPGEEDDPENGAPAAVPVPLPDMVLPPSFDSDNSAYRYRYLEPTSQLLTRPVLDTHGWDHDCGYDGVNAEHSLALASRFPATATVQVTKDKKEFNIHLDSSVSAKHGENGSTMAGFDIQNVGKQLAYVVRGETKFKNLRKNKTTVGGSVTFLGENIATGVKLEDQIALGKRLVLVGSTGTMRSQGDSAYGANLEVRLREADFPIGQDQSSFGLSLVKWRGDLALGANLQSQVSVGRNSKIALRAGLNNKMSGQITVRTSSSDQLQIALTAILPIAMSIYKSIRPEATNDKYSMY

Assays:
[1] = target: T1, PUX10–YFP (A. thaliana) (UniProt Q9M0N1); assay: co-IP; YFP-tagged bait precipitated with GFP-Trap Magnetic Agarose from solubilised protoplasts; 25 mM Tris-HCl pH 7.5, 150 mM NaCl, 1 mM EDTA, 1% Triton X-100; 4 °C; immunoblot of prey
T1 sequence: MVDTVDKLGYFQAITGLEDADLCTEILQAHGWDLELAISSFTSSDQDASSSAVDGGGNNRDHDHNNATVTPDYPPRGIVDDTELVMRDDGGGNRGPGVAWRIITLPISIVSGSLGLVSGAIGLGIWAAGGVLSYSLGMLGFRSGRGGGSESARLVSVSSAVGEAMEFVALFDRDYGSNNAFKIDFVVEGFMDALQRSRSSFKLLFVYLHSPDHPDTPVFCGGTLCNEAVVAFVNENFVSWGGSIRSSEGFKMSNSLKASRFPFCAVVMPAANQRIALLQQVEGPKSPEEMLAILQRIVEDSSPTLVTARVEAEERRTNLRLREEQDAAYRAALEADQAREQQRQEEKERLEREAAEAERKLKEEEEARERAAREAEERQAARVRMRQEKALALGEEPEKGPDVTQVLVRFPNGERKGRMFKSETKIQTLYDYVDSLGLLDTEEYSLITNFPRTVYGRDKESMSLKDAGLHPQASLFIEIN

[2] = target: T2, PUX10–nYFP (A. thaliana) (UniProt Q9M0N1); assay: split reporter; one nYFP fusion and one cYFP fusion (pSATN system, EYFP split between residues 174 and 175) co-transfected into WT Arabidopsis protoplasts; overnight incubation; reconstituted YFP by confocal imaging
T2 sequence: T1 sequence

[3] = target: T3, SP1–nYFP (A. thaliana) (UniProt Q8L7N4); assay: as above
T3 sequence: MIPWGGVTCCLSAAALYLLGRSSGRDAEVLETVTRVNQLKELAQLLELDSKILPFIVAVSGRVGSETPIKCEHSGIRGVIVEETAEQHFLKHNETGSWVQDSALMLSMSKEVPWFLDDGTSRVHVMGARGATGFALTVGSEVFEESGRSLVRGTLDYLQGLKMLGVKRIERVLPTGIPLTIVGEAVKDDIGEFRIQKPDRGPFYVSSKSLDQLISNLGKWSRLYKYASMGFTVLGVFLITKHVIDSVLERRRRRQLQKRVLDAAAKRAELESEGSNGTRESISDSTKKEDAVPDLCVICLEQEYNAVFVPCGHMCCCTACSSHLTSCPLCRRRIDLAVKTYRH

[4] = target: T4, SP1–MYC (A. thaliana) (UniProt Q8L7N4); assay: co-IP; MYC-tagged bait precipitated with EZview Red Anti-c-Myc Affinity Gel from solubilised protoplasts; 25 mM Tris-HCl pH 7.5, 150 mM NaCl, 1 mM EDTA, 1% Triton X-100; 4 °C; anti-GFP immunoblot of prey
T4 sequence: T3 sequence

[5] = target: T1, PUX10–YFP (A. thaliana); assay: co-IP; YFP-tagged bait precipitated with GFP-Trap Magnetic Agarose from solubilised protoplasts; 25 mM Tris-HCl pH 7.5, 150 mM NaCl, 1 mM EDTA, 1% Triton X-100; 4 °C; immunoblot of prey; remark: listed apart in the source

Molecule: Cdc48(∆Nterm)–HA (from UniProt P54609 191-809) (domain or fragment)
binding [1]: no binding

Molecule: cYFP–TOC132 (from UniProt Q9SLF3 1-1206)
binding [2]: binds

B1: cYFP–TOC34 (protein, UniProt Q38906 1-313)
chain: MAALQTLREWIGIQQFPPATQSKLLEILGKYKEEDVSSLTVLVMGKGGVGKSSTVNSVIGEKAAAVSTFQSEGLRPTLVSRTRSGFTLNIIDTPGLIEGGYVNDQAINIIKRFLLNMTIDVLLYVDRLDVYRVDDLDRQVVGAITDAFGKEIWKKSALVLTHAQFSPPDGLNYNHFVSKRSNALLKVIQTGAQLKKQDLQGFSIPVILVENSGRCHKNESDEKILPCGTSWIPNLFNKITEISFNGNKAIHVDKKLVEGPNPNERGKKLIPLMFAFQYLLVMKPLVRAIKSDVSRESKPAWELRDSGLASRRS
binding [2]: binds

B3: PUX10–YFP (protein, UniProt Q9M0N1 1-480)
chain: T1 sequence
binding [4]: binds

B4: SP2–MYC (protein, UniProt Q5PP51 1-362)
chain: MGAQKSIHAGRAKIDVNVDFTHKLCTSLMFPAFRDTSSPLSLVIGSLCIKHPNLFGGSEKLDVSWDKGLYDSNVLVAFRRPRPEWRPQQCFFIQHSLSPEIGVHGTPVDNFSRSGSGGVNLSKLALGLDLSEPASSKWSSTTSIKFEHVRPINDDGRAITRDLDGFPITCSGNTHDSMVVLKQESRFAKATDQGLSHFSMQIEQGIPVVSKWLIFNRFKFVASKGVRFGPAFLLASLTGGSIVGDMAPYQAFAIGGLGSVRGYGEGAVGSGRSCLVANTELALPLNKMTEGTIFLDCGTDLGSSRLVPGNPSMRQGKPGFGYGFGYGLRFKSPLGHLQVDYAINAFNQKTLYFGVTNLASST
binding [5]: binds

B5: TOC33 (endogenous) (protein, UniProt O23680 1-297)
chain: MGSLVREWVGFQQFPAATQEKLIEFFGKLKQKDMNSMTVLVLGKGGVGKSSTVNSLIGEQVVRVSPFQAEGLRPVMVSRTMGGFTINIIDTPGLVEAGYVNHQALELIKGFLVNRTIDVLLYVDRLDVYRVDELDKQVVIAITQTFGKEIWCKTLLVLTHAQFSPPDELSYETFSSKRSDSLLKTIRAGSKMRKQEFEDSAIAVVYAENSGRCSKNDKDEKALPNGEAWIPNLVKAITDVATNQRKAIHVDKKMVDGSYSDDKGKKLIPLIIGAQYLIVKMIQGAIRNDIKTSGKPL
binding [5]: binds

B6: cYFP–TOC33 (protein, UniProt O23680 1-297)
chain: B5 chain
binding [2]: binds

Results, then the molecule that gave them:

binding [1]: binds
Molecule: FLAG–Ub (from UniProt Q8H159 1-76)

binding [1]: binds
Molecule: TOC159 (endogenous) (from UniProt O81283 1-1503)

binding [2]: binds
Molecule: cYFP–TOC159 (from UniProt O81283 1-1503)

binding [3]: binds
B2: PUX10–cYFP (protein, UniProt Q9M0N1 1-480)
chain: T1 sequence

binding [5]: binds
B7: TOC75 (endogenous) (protein, UniProt Q9STE8 141-818)
chain: DEEQSPDWDSHGLPANIVVQLNKLSGFKKYKVSDIMFFDRRRQTTIGTEDSFFEMVSIRPGGVYTKAQLQKELETLATCGMFEKVDLEGKTKPDGTLGVTISFAESTWQSADRFRCINVGLMVQSKPIEMDSDMTDKEKLEYYRSLEKDYKRRIDRARPCLLPAPVYGEVMQMLRDQGKVSARLLQRIRDRVQKWYHDEGYACAQVVNFGNLNTKEVVCEVVEGDITQLVIQFQDKLGNVVEGNTQVPVVRRELPKQLRQGYVFNIEAGKKALSNINSLGLFSNIEVNPRPDEKNEGGIIVEIKLKELEQKSAEVSTEWSIVPGRGGAPTLASFQPGGSVTFEHRNLQGLNRSLMGSVTTSNFLNPQDDLSFKLEYVHPYLDGVYNPRNRTFKTSCFNSRKLSPVFTGGPGVEEVPPIWVDRAGVKANITENFTRQSKFTYGLVMEEITTRDESSHIAANGQRLLPSGGISADGPPTTLSGTGVDRMAFLQANITRDNTKFVNGAVVGQRTVFQVDQGLGIGSKFPFFNRHQLTMTKFIQLREVEQGAGKSPPPVLVLHGHYGGCVGDLPSYDAFVLGGPYSVRGYNMGELGAARNIAEVGAEIRIPVKNTHVYAFVEHGNDLGSSKDVKGNPTAVYRRTGQGSSYGAGVKLGLVRAEYAVDHNNGTGALFFRFGERY
